Measured values as given in patent US20220403048A1, “BINDING MOLECULES TO ARGINASE II [ARG2]” (Cancer Research Technology Limited, priority 2019, published 2022).

Columns and labels:
human ARG2 = molecular target: T1, human ARG2 (Homo sapiens, UniProt P78540); assay: X-ray co-crystal structures of ARG2-Fab complexes, buried surface area of epitope residues; conditions: total of interface residues; C0020187 complex
T1 construct: made in house
T1 sequence (P78540 with tags, fused parts or gaps): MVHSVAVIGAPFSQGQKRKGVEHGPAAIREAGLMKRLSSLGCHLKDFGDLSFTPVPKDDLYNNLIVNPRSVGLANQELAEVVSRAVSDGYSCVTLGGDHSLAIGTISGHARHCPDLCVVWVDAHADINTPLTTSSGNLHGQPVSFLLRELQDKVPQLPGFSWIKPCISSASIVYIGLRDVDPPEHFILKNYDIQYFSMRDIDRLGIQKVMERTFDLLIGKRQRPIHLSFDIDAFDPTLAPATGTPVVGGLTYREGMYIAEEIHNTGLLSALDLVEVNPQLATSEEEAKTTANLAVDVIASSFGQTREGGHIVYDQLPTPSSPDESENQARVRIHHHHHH
Procedure: The construct used for crystal trials was ARG2 (23-354) containing a C-terminal Gly3 linker and His10-tag (ARG2+C0020187, SEQ ID NO: 355: huARG2-His10) or a simple C-terminal His6-tag (ARG2+C0021181 and ARG2+C0021158, SEQ ID NO: 357: huARG2-His6). Crystals suitable for structure determination were obtained using the sitting drop methodology. For ARG2+C0020187, 0.2 μl of complex solution (2.0 mg/ml, ARG2:Fab=3:1, purified by gel filtration) were mixed with 0.1 μl of crystallisation solution containing 2 M (NH4)2SO4. Round, disc-shaped crystals (60×60×20 μm) appeared after 2 days. For ARG2+C0021181, 0.5 μl of complex solution (6.3 mg/ml) were mixed with 0.5 μl of a crystallisation solution containing 100 mM MMT (malic acid:MES:tris=1:2:2) pH 5.0, 20% glycerol, 10% PEG4000, 15 mM NaNO3, 15 mM Na2HPO4, 15 mM (NH4)2SO4. Hexagonal disc-shaped crystals (100×100×20 μm) appeared after 2 days and reached their final size after a week. For ARG2+C0021158, 0.25 μl of complex solution (7.0 mg/ml, containing 20% diluted microseeds of an ARG2+C0021181 crystal) were mixed with 0.25 μl of a crystallisation solution containing 2 M (NH4)2SO4. Crystals of irregular shape (60×60×60 μm) appeared after 2 days. For the ARG2+C0020187 and ARG2+C0021158 crystals, 3 M (NH4)2SO4 and 5% glycerol were added for cryo-protection, after which the crystals were cryo-cooled by plunging them into liquid N2. […]

[1] = tested on: recombinant cynomolgus monkey trimeric ARG2 enzyme; assay: Direct binding HTRF assay, cynomolgus trimeric ARG2; conditions: purified scFv, FIG. 1C

% buried (human ARG2): 39%
binding to biotinylated recombinant cynomolgus trimeric ARG2 enzyme [1]: bound
B1: C0020187: anti-ARG2 antibody, parent lead isolation clone, VH SEQ ID NO: 12, VL SEQ ID NO: 17 (antibody, listed as Homo sapiens, V domains shown)
VH: [about 100 residues not given here]LRADLGLYMDLWGRGTLVTVSS
VL: QSVLTQPPSVSAAPGQKVTISCSGSSSNIGNHYVSWYQQLPGTAPKLLIYDNSERPSGIPDRFSGSKSGTSATLGITGLQTGDEADYYCGTWDSSLSALVFGGGTKLTVL
modifications: C0020187
